Among the data in paper PMC10726135 are binding signal (log2 normalized intensity) values, retold here.

The list shows a part of the results. At the low end of the ranking the order means little. Measured with an extract: partners may take part in the binding.

The target in the test is T1, HNF4alpha2 (COS-7 nuclear extract) (UniProt P41235).
T1 sequence: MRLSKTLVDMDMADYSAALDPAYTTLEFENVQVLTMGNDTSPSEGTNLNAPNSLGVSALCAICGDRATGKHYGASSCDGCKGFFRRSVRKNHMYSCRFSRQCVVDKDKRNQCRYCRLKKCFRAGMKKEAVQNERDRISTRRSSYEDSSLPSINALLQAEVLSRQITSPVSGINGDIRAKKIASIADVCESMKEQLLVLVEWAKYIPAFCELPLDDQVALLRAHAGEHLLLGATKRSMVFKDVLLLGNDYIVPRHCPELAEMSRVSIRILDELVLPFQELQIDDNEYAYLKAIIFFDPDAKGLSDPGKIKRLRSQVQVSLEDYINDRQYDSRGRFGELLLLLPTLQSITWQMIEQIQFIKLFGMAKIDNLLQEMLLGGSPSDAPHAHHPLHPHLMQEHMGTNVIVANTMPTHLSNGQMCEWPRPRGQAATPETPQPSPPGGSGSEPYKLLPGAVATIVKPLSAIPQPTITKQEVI
Briefly: protein-binding microarray. The conditions noted are these: COS-7 nuclear extract on double-stranded Agilent 4x180k PBM; binding buffer, salt, pH and temperature not given; high values mean tight binding; double strand, one strand shown; sequences stand for … in …GCCTAGGGAGATTAGAGTATCGGTCGA
Turning to GATTAATTACCCACAGGTGTGTTGACTCAA, the binding signal (log2 normalized intensity) worked out at 0.897. The figure for GTTCTATGGGATGACCTTTGAGCAATAGGA is 5.15. Then AGAACACGGAGTCCTTCTGGGGCTAGGTTT, with -1.09. Then TCCAGATTAGAGCACAATGTGGGGAGCACA, with 0.53; and TGCTGACTTTCTGTGTCTTGGCAGTGATCA, with 2.17. As to TCACGAAAGGCAACATCTTGAGCCAGGAAT, the binding signal (log2 normalized intensity) was -1.1. The figure for ACGGAGAATGTAGACCTTTACCACCCTCAC is 1.27. The figure for AAAATGAAAGCAAGGGCCAGATCAAAGGCT is -1.31. The figure for AGTGCAAGGGAGAAATTGCGCTAACCAGAT is -1.16; for ATTTCTCAGGAAGTGCTTGTTCCCTCCATC it is 0.335; for ACATCTCTCTCTGCAGCTGAGTAGAGGAAA it is -0.811.

Consider ACAAACCAGCTTTGAGATGATAAAAATTTG, for which the binding signal (log2 normalized intensity) was -1.09.

CTGAAATAGGTAAGCTGGCCCGGGAAGAAG: the binding signal (log2 normalized intensity) was -0.97.

Consider ATGATACGCCGGCCAATCCGGCTGGCAGCC, for which the binding signal (log2 normalized intensity) was -1.28. Then GTAAACCCCAATCAGGTTTCTCAAGTGATC, with 1.7; and GAATTCAAAGGTGCAAAGGTTAAAATGCCC, with 4.55; and GCAGAGGCTGGAGCAGGCCATGTGCAGAGG, with -1.08. Then AGGAGGAGAAGGGTGGGAATTGGGATAGCA, with -1.13; and AAGGTATGGAGCTAAACAATTAAAGAACTC, with -1.13. Take ACCTGTGTGTGTAGGCATAGGAGAAACACA: the binding signal (log2 normalized intensity) is 0.788. On to AATGCGCCTGAACTGACTGCATTCCCTTTC, for which the binding signal (log2 normalized intensity) was -1.2. With TTCTTTTCCCAAACCACGTTTCTGTGGTCA, the binding signal (log2 normalized intensity) came out at 1.58. The figure for GGTCACTCTTGCTATGCCTTAGCAAACAGA is -1.22; for GGTGCCAGAATTGCTGCTCCCCCTCCCAAA it is 4.9. The figure for ACCAGGCCGGGTCACGTGGGTCCAGGGTCA is 2.83; for CAGTATAGTTAGGGCCTTGCAGGGGGCCTC it is -1.06. Regarding TACCCCCATACTTTATTTAGCTTTAGTTCA, the binding signal (log2 normalized intensity) was determined as 1.64.

Turning to AATGGAAGGCAGTGTTCCAAAGTGTAAAAG, the binding signal (log2 normalized intensity) is 0.989. The figure for CAAACAACAGGCATCAACTCTATCATACTC is -0.883.

ACATTGTGTATGGACTGTAATACACAAGCA: the binding signal (log2 normalized intensity) was -0.479.

As for ACGGGCCTGAAAACTGGAGGCCGCGACAAG, the binding signal (log2 normalized intensity) is -1.12. The figure for CTCAAAGTGCTTTTCAATCTTATTTTTACT is -1.17. On to GGTGTCCAGATTCCAGCCTCCTGCTCTGGG, for which the binding signal (log2 normalized intensity) was -1.12.

Turning to ACATGAGCCTCTTTATCTCTCTCTCTTTCT, the binding signal (log2 normalized intensity) turned out to be 0.898. Take AGTGACCCTGTCTCTCAGTCTCTGTGGGAG: the binding signal (log2 normalized intensity) was found to be 1.25.

For AACAAGGATAGCGTCATCAGTCCAGGAGGG, the binding signal (log2 normalized intensity) is -1.06.

TGGTCCTGGAACTCAAAGGTCAAATGACAG: the binding signal (log2 normalized intensity) came out at 3.85. Then AAACCAACCCTGCCAAAGGTTAAAATTCCC, with 0.747; and GCATATGAGTAATGTGAAGACTTCGCTGGA, with -1.03. The figure for GGAACACAATAGGAATTCAACCAATGTGGA is -0.925; for ACCAGCAATTTTCAGGGTTAAAAGTTCTGC it is 0.779; for GACTCATCTCCAAACGAGACTTTGGACTTT it is 8.97. The figure for CCGCAGCGCTGGTGGCTGCAAGGTTTGTGT is 1.39; for TCCCTGCAGTCAGGACTCTGGGACCGCAGG it is -1.09; for AAGGTCACCCGTATTCCTTAGCTTATCGTC it is -0.0407. As to GGGCTGGGTAAAATGAGAATGAGACCTGCT, the binding signal (log2 normalized intensity) is -1.03.

As for TCCGTAACCTCACAGAAATCCAAAGGTCAA, the binding signal (log2 normalized intensity) is 4.75.

Take TAATCTTCACTTGCCACATTTATTGTGAGA: the binding signal (log2 normalized intensity) worked out at 1.52. The figure for GTCCAGGCCATGCAACAGCCTCCTCACTAG is -1.04. Then ATTTACATCAAACACTCACTGGGAGAGAAA, with 0.168; and ATGCAGTGGGTCAGTCTGAGATAGTCATTC, with 0.63; and CCCTTCCCCGCTCTCCCCGCCCCCTCTCCG, with 5.79. Then CTCATCCATGAATCCTGTGGTAGCCACTCT, with -0.42.

As for ACTTTGGCTACTCAGTTTTTTGGCCGTCTT, the binding signal (log2 normalized intensity) came out at 1.62.

Consider TGATAAAACAAATCTACAAATGTTTCAACA, for which the binding signal (log2 normalized intensity) was -1.07.

For the sequence CCAAGGAGACACCCCTGCAGAAGCGGGAGA, the binding signal (log2 normalized intensity) is -1.14. The figure for GAAGCGCACTAAGCCGAACGCTGGGGCAAA is -1.12; for GAGACCCATTTTGGACTTTGACCTCCAAAA it is 10.7. The figure for TTCTCTCCCCCAACCCCACCTTCATTCTTC is 4.27. Then TTCTCAAGGACCTAGAGCTATTCCTTTGAA, with -1.18.

Consider ATGTCATGACCTTCATCAATCAGCCTGATA, for which the binding signal (log2 normalized intensity) is -1.1. As for TATCTGTTTATTTTGCAATTAACAAAGAGA, the binding signal (log2 normalized intensity) amounted to 0.905. For CACTGAGATAAAAATGGCCAAAGGTTGCCA, the binding signal (log2 normalized intensity) was 2.09.

On to GAATTTCAGAAGCAGGTCAATAGGGCAGGG, for which the binding signal (log2 normalized intensity) was determined as 2.1. The figure for GCAAACTATGTGAGGAATCTAAGATAAGCA is -0.971; for CAGGCTGTTTTCCTATAGATTTGTTAAATC it is 1.13; for ATCCAGAGGTCACCCAGAGCGTCCCACCTG it is -1.12.

As to GGAAGGGAGAGATAAGAAAAACTGAGCTTT, the binding signal (log2 normalized intensity) was -1.17.

On to TTGCAGAAGGCAGCCAAACAGAGGCTGAAA, for which the binding signal (log2 normalized intensity) was -1.12.

Turning to GTTCGATAAAAAACAATTTACAACCTGCTC, the binding signal (log2 normalized intensity) is -1.19. Take AAGGTATCCTCCTAGAGTCCAAGGTATAAA: the binding signal (log2 normalized intensity) stood at 1.79. As to TTTCAACCCTGTGATGACCCCATACTTCAG, the binding signal (log2 normalized intensity) was 3.69. The figure for CTGTTGAACATTAACTCTCTGTGAGTGTGT is 1.85.
